Measurements: PubChem BioAssay AID485281 (National Center for Advancing Translational Sciences (NCATS), 2010)
Out of some 350,000 compounds screened, about 260 (0.074%) were called active. This list was built around the results that the source calls inconclusive (neither active nor inactive); the mix of calls is not that of the screen. Calls come from the whole dose curve; as a rule, active = well fitted inhibition curve with a large enough effect; inconclusive = small, poorly fitted or top-dose-only effect; inactive = no such curve, though single readings can be large or run the other way. Potencies beside an inconclusive call are fits to weak or partial responses and may not hold up.

molecular target: Ferritin light chain (Equus caballus) (UniProt P02791); assay: qHTS Assay for Identification of Novel General Anesthetics; conditions: apoferritin/1-aminoanthracene competitive binding, fluorescence; series mostly up to 77.5 µM; note: nearly all actives have a fitted effect of over 20% in size
Outline: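 Steps: apoferritin (10 uM) was premixed with half-saturated 1-AMA in PBS, compounds were pin-transferred, plates stood 10 min at room temperature, fluorescence was read at 380/535 nm, and curves were fitted with a Hill equation.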
Potency is the fitted concentration of half-maximal effect; tags give direction and shape of the fitted curve.

Sequence of UniProt P02791 (P02791 whole entry, looked up): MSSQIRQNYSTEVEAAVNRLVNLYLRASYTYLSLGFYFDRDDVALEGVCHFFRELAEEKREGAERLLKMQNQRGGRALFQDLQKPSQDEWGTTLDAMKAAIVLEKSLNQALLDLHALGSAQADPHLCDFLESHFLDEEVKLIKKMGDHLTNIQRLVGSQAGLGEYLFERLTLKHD

| Compound | Potency |
| --- | --- |
| CCOc1ccccc1/C=N/NC(=O)Cc1csc(Nc2cccc(C(F)(F)F)c2)n1 | inconclusive: 22.4 µM [inhibitor, partial curve] |
| O=C1NCCc2c1[nH]c1ccccc21 | inactive |
| CCN(CC)S(=O)(=O)c1cc(NS(=O)(=O)c2cccc(Cl)c2Cl)ccc1C | inconclusive: 35.5 µM [inhibitor, single point] |
| O=C(Nc1ccc2c(c1)OCO2)C1CCCN(S(=O)(=O)Cc2ccccc2)C1 (centres undefined) | inconclusive: 28.2 µM [inhibitor, partial curve] |
| COc1ccc(-c2ccc(=O)n(CC(=O)Nc3ccc(N(C)C)cc3)n2)cc1 | inconclusive: 14.1 µM [inhibitor, partial curve] |
| CCCCc1nn2c(=O)cc(COC(=O)CNC(=O)c3ccccc3C)nc2s1 | inactive |
| CN(c1ccccc1)S(=O)(=O)c1ccc(C(=O)N2CCc3ccccc3C2)cc1 | inconclusive: 11.2 µM [inhibitor, partial curve] |
| Cc1ccc(CN2CCN(CC(=O)NC(C)CCc3ccccc3)C2=O)cc1 (centres undefined) | inactive |
| O=C(CSc1nnc(CNC(=O)c2ccco2)o1)Nc1ccc(OC(F)(F)F)cc1 | inactive |
| O=C(NCC1COCCO1)c1cc(COc2c(F)cccc2F)on1 (centres undefined) | inconclusive: 35.5 µM [inhibitor, single point] |
| O=C(COc1c(Br)cc(Br)c2cccnc12)N1CCc2ccccc2C1 | inconclusive: 3.55 µM [inhibitor, full curve] |
| CCOC(=O)C1=C(C)N(C)C(=O)NC1c1cc2c(cc1Br)OCO2 (centres undefined) | inconclusive: 35.5 µM [inhibitor, partial curve] |
| CC(C)Cc1nnc(NC(=O)Nc2ccccc2)s1 | inconclusive: 20 µM [inhibitor, partial curve] |
| CCC(=O)N(Cc1cc2c(C)cc(C)cc2[nH]c1=O)C1CCCCC1 | inconclusive: 25.1 µM [inhibitor, partial curve] |
| O=c1/c(=C/c2ccco2)sc2n1CN(c1cccc(Br)c1)CN=2 | inconclusive: 28.2 µM [inhibitor, partial curve] |
| Cc1cc(NC2C3CC4CC(C3)CC2C4)n2ncnc2n1 (centres undefined) | inconclusive: 17.8 µM [inhibitor, partial curve] |
| COc1cc2c(cc1OC)C(C)N(C(=O)c1cc3c(s1)-c1c(C)cccc1OC3)CC2 (centres undefined) | inactive |
| Cc1cc(NC(=O)COC(=O)COc2ccc(C(=O)c3ccccc3)cc2)no1 | inconclusive: 28.2 µM [inhibitor, partial curve] |
| O=C(N/N=C/c1sc2ccccc2c1O)c1ccccc1 | inactive |
